Measured values reported in the supplement of paper PMC3334620.
The full ranking holds about 33,000 sequences; the median of “E-score (-0.5 to 0.5)” is about -0.053, and the highest 2% start at about 0.37. The list shows a part of the results.

biological target: Hap1 (UniProt P0CE41); assay: PBM E-score (8-mer binding enrichment) (E-score (-0.5 to 0.5)); higher = stronger / more preferred TF binding; most listed sequences are background and not binding sites; details: protein concentration: 200 nM; construct: GST-DNA-binding domain
Experimental: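 Universal 'all 10-mer' protein binding microarrays (Agilent AMADID 015681) probed with GST-tagged S. cerevisiae TFs (full-length or DBD) made by in vitro transcription/translation (PURExpress), about 100-200 nM. Bound TF was detected with fluorescent anti-GST. Each ungapped 8-mer (which stands for itself and its reverse complement) is scored by the PBM enrichment score (E-score), a modified Wilcoxon-Mann-Whitney statistic from -0.5 to +0.5, computed with the Universal PBM Analysis Suite. Scale: above 0.35 generally sequence-specific binding.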

Sequence of UniProt P0CE41 (P0CE41 whole entry, the tested form may be a part): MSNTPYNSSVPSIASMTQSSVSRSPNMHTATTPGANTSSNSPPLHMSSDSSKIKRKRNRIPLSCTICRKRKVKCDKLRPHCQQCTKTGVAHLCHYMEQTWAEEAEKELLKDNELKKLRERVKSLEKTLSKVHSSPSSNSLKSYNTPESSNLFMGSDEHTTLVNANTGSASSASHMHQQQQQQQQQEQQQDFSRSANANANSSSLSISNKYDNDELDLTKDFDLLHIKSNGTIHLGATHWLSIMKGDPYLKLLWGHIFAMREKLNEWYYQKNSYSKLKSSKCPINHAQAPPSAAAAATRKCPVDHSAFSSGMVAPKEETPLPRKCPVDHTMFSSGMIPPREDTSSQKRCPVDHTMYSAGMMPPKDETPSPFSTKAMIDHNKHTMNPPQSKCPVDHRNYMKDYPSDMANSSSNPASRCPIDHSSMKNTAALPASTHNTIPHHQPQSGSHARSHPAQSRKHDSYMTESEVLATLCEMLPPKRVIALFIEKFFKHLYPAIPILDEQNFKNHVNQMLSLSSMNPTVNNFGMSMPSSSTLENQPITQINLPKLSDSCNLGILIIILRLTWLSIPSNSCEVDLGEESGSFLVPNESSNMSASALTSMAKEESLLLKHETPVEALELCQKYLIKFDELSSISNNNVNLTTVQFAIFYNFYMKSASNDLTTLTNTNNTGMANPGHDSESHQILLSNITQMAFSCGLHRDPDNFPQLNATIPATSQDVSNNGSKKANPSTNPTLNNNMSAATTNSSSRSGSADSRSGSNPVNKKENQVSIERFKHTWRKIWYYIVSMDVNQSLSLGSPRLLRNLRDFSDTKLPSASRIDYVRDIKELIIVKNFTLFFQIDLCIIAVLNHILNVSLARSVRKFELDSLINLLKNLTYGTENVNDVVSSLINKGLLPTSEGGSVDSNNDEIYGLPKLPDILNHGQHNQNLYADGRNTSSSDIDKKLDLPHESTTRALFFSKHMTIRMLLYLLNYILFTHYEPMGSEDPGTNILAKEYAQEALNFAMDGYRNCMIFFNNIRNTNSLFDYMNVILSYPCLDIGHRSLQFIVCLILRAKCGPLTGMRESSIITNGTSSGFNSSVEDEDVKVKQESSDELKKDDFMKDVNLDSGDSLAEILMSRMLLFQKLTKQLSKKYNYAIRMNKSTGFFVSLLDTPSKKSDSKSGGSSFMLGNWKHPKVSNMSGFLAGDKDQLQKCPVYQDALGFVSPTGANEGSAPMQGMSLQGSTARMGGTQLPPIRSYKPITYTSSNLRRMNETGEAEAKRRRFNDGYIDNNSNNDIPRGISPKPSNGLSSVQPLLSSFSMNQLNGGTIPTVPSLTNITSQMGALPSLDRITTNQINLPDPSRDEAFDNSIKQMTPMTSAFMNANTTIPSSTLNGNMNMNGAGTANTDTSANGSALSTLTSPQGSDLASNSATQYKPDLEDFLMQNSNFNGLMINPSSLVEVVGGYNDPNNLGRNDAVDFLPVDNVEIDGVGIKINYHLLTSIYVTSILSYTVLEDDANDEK

Row | Sequence | PBM E-score
1 | GGCCCACA | -0.01
2 | CGATGAAC | 0.169
3 | ACAAGTGG | -0.361
4 | CCTCGCGA | -0.042
5 | AGGCGGTC | -0.0534
6 | ACATGCAA | -0.169
7 | ATCCGTAC | 0.147
8 | ATAAATTC | 0.0886
9 | AACAAGGT | -0.208
10 | AAGTCTAC | -0.151
11 | CCGCACTC | 0.119
12 | CTGGTCAC | -0.325
13 | CGCATATC | 0.206
14 | CAGGCTAC | -0.104
15 | GCCCCAGA | -0.0764
16 | CATGATCG | 0.0268
17 | CCACACCC | 0.0324
18 | TACTCCCA | -0.143
19 | CGGCTAGA | 0.182
20 | ACCGGACA | 0.411
21 | CAAAGCCC | 0.164
22 | AGGAGTTG | -0.0647
23 | ACGTGGAC | -0.0326
24 | AAGCATAT | -0.0158
25 | AACCTTCA | -0.258

Row | Sequence | PBM E-score
26 | AGCCTACC | 0.00118
27 | CGTGTCGA | -0.187
28 | GCAATAAA | 0.187
29 | AATATACG | -0.0398
30 | CATAACTC | 0.128
31 | CAGGCAAC | -0.238
32 | CACGTATG | -0.111
33 | CGGAATCA | 0.328
34 | GGCCTTCA | -0.0156
35 | AAATGGAG | -0.0137
36 | CGTACCGC | 0.0872
37 | ACACGGGA | 0.116
38 | CAATTTGG | -0.257
39 | AACCGACA | 0.129
40 | GCTTGTCA | -0.00494
41 | CTCCCACA | -0.0245
42 | AACACTTC | -0.118
43 | ACCACCCT | -0.13
44 | CTATGGGC | -0.0743
45 | ATCGGCAC | 0.315
46 | CCCCGCGC | 0.0744
47 | GCCCGGGA | 0.316
48 | ACGGGAGG | 0.0415
49 | CAACGAAA | -0.058
50 | GTTAATCA | -0.0449

Row | Sequence | PBM E-score
51 | ATTAGGAC | -0.146
52 | TCTTACAA | -0.186
53 | CCAAGTTC | 0.105
54 | GTGTTCCA | -0.0624
55 | CGGCCCTA | 0.318
56 | GTAAACTA | -0.08
57 | GCCGCTCA | 0.0121
58 | GCACCAGC | -0.0483
59 | ATCCAGAC | 0.099
60 | GCACCAAA | -0.136
61 | CTTAGTAC | -0.0465
62 | AGAGGTGA | -0.23
63 | AGTTAATC | -0.0235
64 | AGTCAACG | -0.207
65 | ATGGAACG | -0.0709
66 | GAAAACAC | 0.193
67 | AGTTGCGG | 0.153
68 | ACGCCCTA | 0.0779
69 | AGCCGTGA | 0.0986
70 | ACAGTTAA | -0.128
71 | ATAATGTG | -0.188
72 | CGTATAAG | 0.09
73 | ATCTGACG | -0.281
74 | ACGACAGC | -0.166
75 | AATAGATT | 0.0018

Row | Sequence | PBM E-score
76 | CACCCTAG | -0.133
77 | CGATTAAG | -0.0493
78 | AATGTGGC | -0.1
79 | AAGATACT | 0.0899
80 | ACCCTCAG | -0.197
81 | GCGAGCGA | 0.0699
82 | ATCGCATG | 0.0714
83 | CATTATGC | 0.0638
84 | GGGACACA | -0.0551
85 | CCCATATA | -0.128
86 | AGTGAAAC | -0.162
87 | CCCATCCG | 0.21
88 | CATATGAC | -0.131
89 | ATATTCTC | -0.0331
90 | GAGTTACA | 0.0965
91 | GCACTTCA | -0.0709
92 | CATATAAA | -0.201
93 | TCTGAAAA | -0.00301
94 | ATGCAAAA | -0.124
95 | GAGCCACC | -0.127
96 | CATCACCG | 0.212
97 | CGGATCTC | 0.279
98 | CCTCGAAC | -0.2
99 | CTCTCGGA | 0.4
100 | GACGCAAC | 0.0888

Row | Sequence | PBM E-score
101 | AAGTCCAT | -0.00211
102 | ACAAGGTC | -0.251
103 | ATCCATCC | 0.273
104 | GTAAGCCA | -0.354
105 | CATCATGC | -0.317
106 | AAGCGGAA | 0.211
107 | ATTTCTTG | 0.0278
108 | AACCCAAT | -0.185
109 | CAACCCAC | -0.131
110 | CCCTGTAC | -0.167
111 | AATGGACA | -0.242
112 | GCGGAGAA | 0.349
113 | TGTTATAA | 0.00991
114 | ATTCACGG | 0.152
115 | AGCTAGTG | -0.146
116 | GTTAAGAA | 0.0147
117 | CCTCGTGA | -0.165
118 | CGGTGAGC | 0.0638
119 | ATAGTGTC | -0.0299
120 | CGCAAGTA | 0.0146
121 | AACCGAAC | 0.165
122 | CCGCTCGA | 0.112
123 | CCTGTCTA | -0.161
124 | AGTTCACG | 0.0527
125 | CCTGGCGC | 0.128

Row | Sequence | PBM E-score
126 | CCGACAAA | 0.304
127 | CCGAGAAG | 0.293
128 | CAACTCCC | 0.0886
129 | CGCTTCGC | 0.16
130 | AAGTTCAC | 0.0265
131 | ACGTCCCG | 0.093
132 | GATAGGCC | 0.178
133 | GATTACCC | 0.166
134 | CAAAATCG | -0.0102
135 | GACCCGAA | 0.301
136 | CCTAAGGC | -0.131
137 | CAATCATG | -0.274
138 | ACCATGCA | -0.132
139 | GATTCGCA | 0.132
140 | CAATCATC | 0.00362
141 | GCGAGACA | -0.199
142 | AGTTCTGG | -0.189
143 | ACCGCCAT | -0.0161
144 | CTTCGCCA | 0.015
145 | AAGCCCAC | -0.123
146 | GTACTGAA | -0.0794
147 | ACAATGGC | -0.082
148 | CTGGCCGA | 0.25
149 | CTGGCAGC | -0.103
150 | AGCATTTA | -0.0725

Row | Sequence | PBM E-score
151 | ACGCGTCC | 0.0749
152 | AGACTTGC | -0.225
153 | CGGATCCC | 0.28
154 | AGAAAGGG | -0.14
155 | GGCTAATA | 0.0843
156 | CAAGCGCG | 0.0608
157 | AGGAGGTG | -0.304
158 | ACAAGCTG | -0.184
159 | CGAGATCC | 0.148
160 | AAGCAGTA | -0.262
161 | CACCTAAA | -0.214
162 | CATGGTCA | -0.0446
163 | GCGTAGCC | -0.135
164 | ATCGAGAA | -0.132
165 | AGGCGCAT | 0.0322
166 | AGTCACGG | 0.181
167 | CTAATTCC | 0.349
168 | CACACGCC | 0.105
169 | GTCTTCTA | -0.11
170 | CGCTTTGC | 0.0331
171 | GGGACCTA | 0.116
172 | CGCACACG | 0.0946
173 | AGAGTCTA | -0.318
174 | ATTTAAAA | 0.0376
175 | GTCAAGAA | -0.178

Row | Sequence | PBM E-score
176 | ATTGTGAC | -0.261
177 | GCAGTTTA | -0.0464
178 | CTGAGGGA | -0.236
179 | GTACGCAA | -0.186
180 | CCCGGCAC | 0.119
181 | CCCAAGTA | -0.137
182 | CTAGCAGA | -0.242
183 | AATCAAGG | 0.132
184 | AGCACCGC | 0.174
185 | AGCTGAAG | -0.245
186 | TCATTCAA | -0.108
187 | GTGTCGGA | 0.325
188 | GGAGTGAA | 0.0859
189 | TAGAAGCA | -0.336
190 | AGGTGTTG | -0.064
191 | AACCATAA | -0.124
192 | ACCGCACC | 0.264
193 | CCCAAACC | 0.124
194 | CAATAATA | 0.0248
195 | AAGTGGAA | -0.122
196 | CAGCCTTA | -0.0219
197 | CGAACCTC | 0.0197
198 | ACTGGGCC | 0.0867
199 | AACGGTGC | -0.0225
200 | AAAGCGAC | 0.0734

Row | Sequence | PBM E-score
201 | ATAAAAAG | 0.0576
202 | GGGAATAA | 0.396
203 | CACGGTGC | -0.171
204 | CCATCGCC | 0.197
205 | ACGGGGGA | 0.163
206 | ACGACCCG | 0.141
207 | CCTATACA | -0.276
208 | CGTCCCCA | -0.0642
209 | GGATTTGA | 0.1
210 | CTCTGCAC | -0.136
211 | AAAGCACT | -0.0566
212 | AATACGCC | 0.105
213 | CCGCTATC | 0.31
214 | GACGGTTA | 0.108
215 | GAATAATA | 0.105
216 | ACAAGGAT | -0.249
217 | CTACGTAC | -0.106
218 | ACGGAACC | 0.284
219 | CTGGTGAA | -0.285
